# Screen size: about 52,000 compounds; about 1,700 (3.3%) were called active. Cut-off read from the data, not from the text of the source: active = survival mostly below about 52% (no sharp cut-off); inactive = mostly above about 56%. The list shows a part of the results.
# Tested on: Wild type
# Test: S. aureus survival, RN4220 and DeltatarO strains – OD600, teichoic acid synthesis inhibitors, primary screen (AID 463173)
# Settings: S. aureus RN4220 wild type/DeltatarO growth, OD600, 18 h, stronger effect = lower value, screened at 18.75 µg/mL (by protocol)
row,Compound,survival
1,CCOc1ccc(C2c3[nH]c4ccccc4c3CCN2C(=O)CSCc2ccc(F)cc2)cc1 (stereo unspecified),inactive: 113%
2,Cc1ccc(CCNC(=O)c2c3c(nc4ccccc24)C(=O)N(C2CCCCC2)C3)cc1,inactive: 73%
3,Cc1cc(S(=O)(=O)NCC(c2ccco2)S(=O)(=O)c2cccs2)ccc1F (stereo unspecified),inactive: 95%
4,Cc1cccc(NC(=O)CS(=O)(=O)c2cccc3nsnc23)c1,inactive: 64%
5,COC(=O)c1ccccc1NC(=O)CSc1nc(=O)cc(N)n1-c1ccccc1,inactive: 72%
6,CCOc1ccc(NC(=O)CSc2nnc(-c3ccc(OCC)cc3)o2)cc1,inactive: 85%
7,Cc1ccc(NC(=O)Cn2c(=O)n(Cc3nc(-c4ccccc4)no3)c(=O)c3ccccc32)cc1C,inactive: 71%
8,Cc1cccc(NC(=O)COc2ccc(-c3nn(C)c(=O)c4ccccc34)cc2)c1,inactive: 69%
9,CCOc1ccc(CCNC(=O)CCCc2nnc3n(CC)c(=O)c4sccc4n23)cc1OCC,inactive: 89%
10,Cc1ccc(CNC(=O)c2c(-c3ccccc3Cl)noc2C)o1,inactive: 81%
11,Cc1coc2cc3oc(=O)c(CC(=O)NCc4cccc(Cl)c4)c(C)c3cc12,inactive: 106%
12,COc1cc(OC)c(NC(=O)CN2CCCN(Cc3ccccc3C)S2(=O)=O)cc1Cl,inactive: 75%
13,Nc1ccc(N=C2C(=O)Nc3ccccc32)cc1,inactive: 111%
14,COc1ccc(CNC(=O)Nc2ccc3c(c2)N(C)C(=O)c2ccccc2S3)cc1OC,inactive: 86%
15,Cc1ccc(-n2nnnc2CNC(=O)c2ccc(F)cc2)cc1C,inactive: 124%
16,CCOc1ccc(N2CC(C#N)=C3c4cc(OC)c(OC)cc4CCN3C2)cc1,inactive: 97%
17,COc1ccccc1-c1nn2c(=O)cc(CN3CCN(S(=O)(=O)c4ccc(C)cc4)CC3)nc2s1,inactive: 66%
18,Brc1ccc(CNCCCSc2nnnn2-c2ccccc2)cc1,inactive: 87%
19,Cc1cccc(-c2noc(CNC(=O)c3ccco3)n2)c1,inactive: 85%
20,Clc1cccc(N2CCN(c3ncnc4c3nc3n4CCCC3)CC2)c1,inactive: 117%
21,CCOC(=O)c1ccc(NC(=O)C2Cc3ccccc3C(=O)O2)cc1 (stereo unspecified),inactive: 79%
22,COC(=O)c1cc2oc3ccccc3c2n1CC(=O)Nc1cc(OC)cc(OC)c1,inactive: 72%
23,CC(C)(C)c1nn(-c2ccccc2)c2[nH]c(=O)c(CNc3ccc4c(c3)OCO4)cc12,inactive: 90%

row,Compound,survival
1,CC(=O)Nc1ccc(C)cc1-c1nc2ccccc2n(CC(=O)c2ccc(Cl)cc2)c1=O,inactive: 104%
2,CC(=O)N(Cc1cccnc1)c1nc2ccc(F)cc2s1,inactive: 68%
3,COc1cccc2cc(-c3cn4c(n3)sc3cc(F)ccc34)c(=O)oc12,inactive: 75%
4,Cc1ccc(C2=Nc3ccccc3N(CC(=O)Nc3ccccc3C)C(=O)C2)cc1C,inactive: 85%
5,Cc1ccc(CNC(=O)NC2COc3ccccc3C2)cc1 (stereo unspecified),inactive: 94%
6,CCOc1ccccc1C(=O)N1CCN(CCc2ccccn2)CC1,inactive: 84%
7,Cc1cc(C)c(NC(=O)Cn2c(=O)n(CCc3ccccc3)c(=O)c3ccccc32)c(C)c1,inactive: 101%
8,Cc1ccc(N2CCn3c2nc2c3c(=O)n(CCCc3ccccc3)c(=O)n2C)cc1,inactive: 84%
9,O=C1CCCCCN1Sc1ccccc1,inactive: 91%
10,COc1ccc(OC)c(CNC(=O)c2ccccc2NC(=O)c2nsc3ccccc23)c1,inactive: 76%
11,Cc1c(Cl)cccc1NC(=O)Cn1nc(C(F)(F)F)c2c1CCC2,inactive: 71%
12,N#Cc1c2c(c(Nc3ccc(O)cc3)n3c1nc1ccccc13)CCC2,inactive: 102%
13,Cc1ccc(NC(=O)C2CCCN(S(=O)(=O)c3cccc4cccnc34)C2)c(Br)c1 (stereo unspecified),inactive: 63%
14,COc1ccc(CCNC(=O)c2c(C)oc3nc(C)nc(N4CCOCC4)c23)cc1OC,inactive: 75%
15,Cc1cc(C)n(-c2nc3ccccc3nc2Nc2cccc(C(=O)NCCc3ccccc3)c2)n1,inactive: 92%
16,C#CCNc1nc(CC(C)C)nc2c1nnn2Cc1ccccc1,inactive: 101%
17,CCN1CCOC(=O)C1CC(=O)Nc1cccc(OC)c1 (stereo unspecified),inactive: 69%
18,Cn1cc(S(=O)(=O)N2CCCCCC2)cc1C(=O)NCc1ccc(Cl)cc1,inactive: 110%
19,CC1=C(C(=O)Nc2ccccc2)C(c2cccc(O)c2)n2nc(-c3ccccc3Cl)nc2N1 (stereo unspecified),inactive: 69%
20,Cc1onc(-c2ccccc2Cl)c1C(=O)Oc1ccc(Br)cc1,active: 4%
21,COc1ccc(S(=O)(=O)NNC(N)=S)cc1,inactive: 90%
22,C#CCn1c(/C=C/c2ccc(Cl)cc2)nc2ccccc21,active: 23%
23,CC(C)CC(=O)NCC(c1ccc2c(c1)OCO2)N1CCN(c2ccccc2F)CC1 (stereo unspecified),inactive: 76%

# Reference: PubChem BioAssay AID463173 (ICCB-Longwood Screening Facility, Harvard Medical School, 2010)
